# Measurements taken from PMC4336329 (PLoS ONE, 2015).
# The campaign covered roughly 310,000 compounds. About 14,000 (4.5%) showed an effect of 50% or more. Effects have a minus sign here. This is one part of the list.
# Target: human ether-à-go-go-related gene (hERG) potassium channel (human, UniProt Q12809)
# Assay: primary screen, population patch clamp on CHO cells stably expressing hERG
# 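Also: peak tail current of the secondary pulse compared with the same well before compound.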
# Sequence of human ether-à-go-go-related gene (hERG) potassium channel (Q12809 whole entry, looked up): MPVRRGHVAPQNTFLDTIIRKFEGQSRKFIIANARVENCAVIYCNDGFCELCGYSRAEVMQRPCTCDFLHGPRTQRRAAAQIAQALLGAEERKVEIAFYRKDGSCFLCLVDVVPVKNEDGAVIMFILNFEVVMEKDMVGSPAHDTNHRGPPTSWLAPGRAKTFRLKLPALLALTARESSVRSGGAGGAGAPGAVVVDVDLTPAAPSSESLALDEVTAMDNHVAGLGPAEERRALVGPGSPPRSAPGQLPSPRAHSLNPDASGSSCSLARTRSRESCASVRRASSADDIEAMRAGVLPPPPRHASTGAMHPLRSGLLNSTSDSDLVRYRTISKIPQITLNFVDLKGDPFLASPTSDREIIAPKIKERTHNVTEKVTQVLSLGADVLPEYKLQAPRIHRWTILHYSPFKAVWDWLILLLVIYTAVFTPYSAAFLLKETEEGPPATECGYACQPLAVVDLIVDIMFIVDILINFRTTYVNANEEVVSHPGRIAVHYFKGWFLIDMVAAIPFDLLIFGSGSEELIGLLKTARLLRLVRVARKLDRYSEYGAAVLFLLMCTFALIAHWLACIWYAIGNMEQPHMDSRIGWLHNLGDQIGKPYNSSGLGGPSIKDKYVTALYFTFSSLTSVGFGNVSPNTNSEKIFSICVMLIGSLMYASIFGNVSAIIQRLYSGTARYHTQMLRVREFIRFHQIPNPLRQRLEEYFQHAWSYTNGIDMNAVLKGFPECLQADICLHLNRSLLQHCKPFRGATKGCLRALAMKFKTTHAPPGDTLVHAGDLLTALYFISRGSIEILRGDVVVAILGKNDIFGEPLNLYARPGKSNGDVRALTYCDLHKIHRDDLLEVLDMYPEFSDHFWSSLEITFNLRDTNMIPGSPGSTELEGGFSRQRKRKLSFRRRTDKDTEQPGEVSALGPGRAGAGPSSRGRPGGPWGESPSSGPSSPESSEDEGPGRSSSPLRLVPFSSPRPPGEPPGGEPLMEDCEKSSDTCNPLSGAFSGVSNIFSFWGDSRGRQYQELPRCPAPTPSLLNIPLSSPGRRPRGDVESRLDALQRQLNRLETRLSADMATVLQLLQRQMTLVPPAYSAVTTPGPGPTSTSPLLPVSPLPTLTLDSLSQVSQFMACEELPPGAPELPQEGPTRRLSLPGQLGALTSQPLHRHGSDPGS
row,Compound,"hERG current change (%, negative = inhibition) at 10uM"
1,CC12CCC(C(=O)N(CC(O)CN3CCCCCC3)C1=O)C2(C)C.Cl (centres unmarked),3.37%
2,CCOC(=O)C1=C(C)OC(N)=C(C#N)C1c1cc(Cl)c(OCC(N)=O)c(OC)c1 (centres unmarked),-5.87%
3,Cc1ccc(S(=O)(=O)Nc2nc3cc(C)c(C)cc3[nH]2)cc1,8.98%
4,CCC(OC(=O)CC1Sc2ccccc2NC1=O)C(=O)NCC1CCCO1 (centres unmarked),-7.94%
5,CCc1nnc(NC(=O)CC23CC4CC(CC(Br)(C4)C2)C3)s1,-1.4%
6,OCCN(Cc1ccccc1)CC1CCCCC1,-2.28%
7,CCC1(CC)NC(=O)N(CC(=O)OCC(=O)Nc2cc(C)ccc2C)C1=O,12.9%
8,CCN(Cc1ccccc1)c1ccc(/C=N/NC(=O)c2cccc(S(=O)(=O)N3CCOCC3)c2)cc1,-5.49%
9,CC(=O)Oc1ccc(/C=C2/C(=O)N(c3ccccc3)N=C2C)cc1,4.53%
10,COCCCNC(=O)c1cn(Cc2c(F)cccc2Cl)nn1,-3.65%
11,CCOc1ncc(S(=O)(=O)N2CCN(CC)CC2)cc1C(=O)O,26.4%
12,CCOc1ccc(NC(=O)Cn2nc(C(N)=O)c3ccccc3c2=O)cc1S(=O)(=O)N1CCCC1,0.537%
13,CCOC(=O)c1ccc2[nH]c(C)c(CCC(C)=O)c(=O)c2c1,10.7%
14,CCc1cccc(NC(=O)C2CCCN(S(=O)(=O)c3cccs3)C2)c1 (centres unmarked),-7.62%
15,Cc1ccc(N2CC(NC(=O)C(=O)c3c(C)[nH]c4ccccc34)CC2=O)cc1C (centres unmarked),-10.1%
16,N#Cc1nc(COc2cccc(Cl)c2)oc1N1CCCC1,-47.5%
17,O=c1c2cc(NC(=S)N3CCCCCC3)ccc2nc2n1CCCCC2,-43.9%
18,COc1cc(CN2CCCCCC2)cc(OC)c1,5.09%
19,COC(=O)C1=C(C)N(Cc2ccccc2)C(=NCCCCO)N[C@H]1c1ccccc1,-53.2%
20,CCCCCCNC(=O)N[C@H](Cc1ccc(O)cc1)C(=O)NCCC[C@H]1CN2C(=NC[C@H]2CCC)N1CC1CCC1,9.27%
21,Cc1ccc(S(=O)(=O)NC(N)=NCCc2ccc(Cl)cc2)cc1,8.52%
22,COC(=O)c1sc(NC(=O)CSc2n[nH]c(N)n2)c(C(=O)OC)c1C,15.1%

row,Compound,"hERG current change (%, negative = inhibition) at 10uM"
1,Fc1ccc(Cl)cc1/C=N/n1cnnc1SCc1ccccc1,12.1%
2,O=C(O)/C(=C\c1ccco1)NC(=O)c1ccco1,15.8%
3,O=C1NCCN1CCNS(=O)(=O)c1ccc(F)cc1,5.47%
4,S=C(Nc1ccc(Oc2ccccc2)cc1)NC1CCCC1,6.91%
5,CC(=O)OCC1=C[C@@H]2OC(=O)C3=CO[C@@H](O[C@@H]4O[C@H](CO)[C@@H](O)[C@H](O)[C@H]4O)[C@H]1[C@@H]32,3.61%
6,CCN(C(=O)C(=O)c1c[nH]c2ccccc12)c1ccccc1,11%
7,CC(=O)Nc1ccc(S(=O)(=O)NCC(=O)OCC(=O)c2cc(C)n(-c3ccc4c(c3)OCO4)c2C)cc1,-0.381%
8,CCCC(C(=O)NC(C)(C)C)N(C(=O)c1snc(C(N)=O)c1N)c1ccc2c(c1)OCCO2 (centres unmarked),2.73%
9,CSc1nc(N)n2nc(C(C)(C)C)cc2n1,-2.4%
10,CC(C)(C)c1ccc(-c2noc(-c3ccno3)n2)cc1,17.9%
11,Cc1nonc1NC(=O)CSc1nc2ccccc2[nH]1,9.42%
12,COc1cccc(CN(C)C(=O)CNC(=O)c2ccc3c(c2)OCO3)c1OC,15.3%
13,COc1ccc(-c2nnc(NC(=O)CSc3ccc(Cl)cc3)s2)cc1OC,-14.2%
14,COc1ccc(CCNC(=O)Cn2c(=O)n(CC3CCCO3)c(=O)c3ccccc32)cc1OC (centres unmarked),-0.738%
15,S=C(Nc1ccccc1Cl)N1CCCCCC1,5.72%
16,Cc1nc(-c2ccc(F)cc2)c(CC(=O)N2CCN(S(=O)(=O)c3cccc(Cl)c3)CC2)s1,-17.7%
17,Cc1ccc(N(CC(=O)Nc2cccc(C)c2)S(=O)(=O)c2cccc3nonc23)cc1,0.456%
18,O=C(c1ccc(F)cc1)N1CCC(n2nnc3ccccc32)CC1,-33.3%
19,Cc1cc(NC(=O)c2ccc(Cl)cc2Cl)no1,6.38%
20,Cc1ccc(NC(=O)Cn2ncc(Cl)c(Cl)c2=O)cc1S(=O)(=O)N1CCCCC1,-40%
21,CC(=O)c1ccc(S(=O)(=O)NC2CC(=O)N(c3ccc(C)cc3)C2)cc1 (centres unmarked),-12.4%
22,Cc1cc(Cn2nc(-c3ccccc3)cc2C(=O)NCc2cccc(Br)c2)on1,-14.6%
